# The campaign covered roughly 310,000 compounds. About 14,000 (4.5%) showed an effect of 50% or more. The effect is printed as a negative number. This is one part of the list. Where a SMILES comes first, the peptide text is derived from it. The star is where a group is joined. OBn = c1ccc(CO*)cc1
# Biological target: human ether-à-go-go-related gene (hERG) potassium channel (human, UniProt Q12809)
# Test: primary screen, population patch clamp on CHO cells stably expressing hERG
# 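Note: peak tail current of the secondary pulse compared with the same well before compound.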
# Chain of human ether-à-go-go-related gene (hERG) potassium channel (Q12809 whole entry, looked up): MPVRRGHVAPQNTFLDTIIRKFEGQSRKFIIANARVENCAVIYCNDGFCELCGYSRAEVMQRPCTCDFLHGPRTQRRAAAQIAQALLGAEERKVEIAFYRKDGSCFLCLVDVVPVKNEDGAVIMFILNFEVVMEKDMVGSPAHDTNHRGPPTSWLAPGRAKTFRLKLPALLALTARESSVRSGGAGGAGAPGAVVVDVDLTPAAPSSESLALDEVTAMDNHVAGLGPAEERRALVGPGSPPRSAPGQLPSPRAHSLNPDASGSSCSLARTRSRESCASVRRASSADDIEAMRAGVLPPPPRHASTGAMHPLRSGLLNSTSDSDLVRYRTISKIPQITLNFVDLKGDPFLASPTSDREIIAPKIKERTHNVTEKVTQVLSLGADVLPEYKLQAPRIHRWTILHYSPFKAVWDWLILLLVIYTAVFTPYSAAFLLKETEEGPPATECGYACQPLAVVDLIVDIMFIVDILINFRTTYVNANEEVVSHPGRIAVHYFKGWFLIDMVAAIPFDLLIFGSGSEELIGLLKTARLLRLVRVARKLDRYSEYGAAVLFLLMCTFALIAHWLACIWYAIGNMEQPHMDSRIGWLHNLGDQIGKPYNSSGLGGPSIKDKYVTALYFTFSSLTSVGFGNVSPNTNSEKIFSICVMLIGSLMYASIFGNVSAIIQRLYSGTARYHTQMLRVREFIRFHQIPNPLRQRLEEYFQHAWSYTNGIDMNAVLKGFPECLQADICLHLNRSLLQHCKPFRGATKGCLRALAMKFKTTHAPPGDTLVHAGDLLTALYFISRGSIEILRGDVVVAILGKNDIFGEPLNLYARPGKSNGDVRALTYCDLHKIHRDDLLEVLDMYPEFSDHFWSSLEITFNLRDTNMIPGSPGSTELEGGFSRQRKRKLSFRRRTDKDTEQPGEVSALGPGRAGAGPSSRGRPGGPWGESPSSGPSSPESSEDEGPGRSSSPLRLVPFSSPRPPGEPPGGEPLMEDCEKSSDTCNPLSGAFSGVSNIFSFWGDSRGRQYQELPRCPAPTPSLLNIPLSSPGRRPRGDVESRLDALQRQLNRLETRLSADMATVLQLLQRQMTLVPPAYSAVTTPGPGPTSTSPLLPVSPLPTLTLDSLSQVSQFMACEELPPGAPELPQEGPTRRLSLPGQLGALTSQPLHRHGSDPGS
row,SMILES,"hERG current change (%, negative = inhibition) at 10uM"
1,CC1=C/C(=N\N=C2\NC(=O)C(CC(=O)Nc3ccccc3F)S2)CC(C)(C)C1 (stereo not drawn),-5.15%
2,CC(=O)N1c2ccc(S(=O)(=O)N3CCC(C(=O)N4CCN(c5cccc(C(F)(F)F)c5)CC4)CC3)cc2CC1C (stereo not drawn),-5.21%
3,Cc1sc(NC(=O)CSc2nnc(N)s2)c(C#N)c1C,23.2%
4,COc1ccc(C2CCCN2C(=O)Nc2ccc(Cl)cc2)cc1OC (stereo not drawn),-46.7%
5,COc1cc([N+](=O)[O-])ccc1NC(=O)Cn1ccsc1=N.O=C(O)C(=O)O,-23.8%
6,CC1CCN(C(=O)COc2ccc(S(=O)(=O)N3CCCC3)cc2)CC1,17.1%
7,CCN(CC)C(=O)c1cc2cc(Br)ccc2oc1=O,-0.273%
8,OCC[C@H]1C[C@H](O)[C@@H](O)[C@]2(CCc3ccccc3CO2)O1,3.56%
9,CCCCSc1nc(SCC(=O)NCc2ccco2)c2c3c(sc2n1)COC(C)(CC)C3 (stereo not drawn),0.126%
10,Cc1cc(NC(=O)c2ccc(F)cc2)n(CCOC(=O)c2ccc(F)cc2)n1,-5.84%
11,CCOc1ccc(N(CC)C(=O)c2nn(-c3ccc(OC)cc3)c(=O)c3c2c2ccccc2n3C)cc1,15.6%
12,O=C(Oc1ccccc1/C=C\C(=O)c1cc2ccccc2o1)c1cccc(F)c1,7.03%
13,Cc1cc2c(cc1S(=O)(=O)CCC(=O)N(C)C1CCCCC1)OCC(=O)N2,-32%
14,CC(C)CC(=O)N1CCN(Cc2ccc3c(c2)OCO3)CC1,0.479%
15,CCCN1CCC(NC(=O)CC2C(=O)NCCN2Cc2cccc(OC)c2)CC1 (stereo not drawn),3.29%
16,CC(=O)Nc1ccc(NC(=O)CS(=O)(=O)c2cn(CC(=O)N3CCCCC3)c3ccccc23)cc1,3.67%
17,COCCNc1ncnc2nc[nH]c12,9.48%
18,CCN1C(=O)[C@H]2[C@@H](c3ccc(-c4ccccc4)cc3)N3CCCC[C@@]3(C(=O)OC)[C@H]2C1=O.O=C(O)C(F)(F)F,0.377%
19,CCN(C(=O)CCc1nc(-c2ccc(OC)cc2)no1)c1cc(OC)ccc1OC,-5.77%
20,CCCCC(CC)CNCc1cccn1CCN1CCOCC1.O=C(O)C(=O)O (stereo not drawn),5.04%
21,O=C(COc1ccccc1Cl)Nc1ccc2c(c1)C(=O)NC2=O,7.52%
22,COc1ccc(C(=O)NC(C(=O)NCC(=O)Nc2c(C)cccc2C)C(C)C)cc1 (stereo not drawn),10.5%

row,SMILES,"hERG current change (%, negative = inhibition) at 10uM"
1,Cc1sc(NC(=O)Cc2ccc3c(c2)OCO3)nc1-c1ccc2c(c1)CCN2C(=O)c1cccc(F)c1,3.36%
2,COc1ccccc1CN1CCC(n2nccc2NC(=O)CCc2ccccc2)CC1,-23.9%
3,Cc1ccc(-c2c[n+]3c(n2-c2ccccc2)CCC3)cc1.[Br-],-48.9%
4,CC1CC(NC(=O)Cc2ccc(Br)cc2)CC(C)(C)C1 (stereo not drawn),4.54%
5,CCOc1ccc(N/C=C/C(=O)c2ccc(OC)c(OC)c2)cc1,14.3%
6,Cc1c(C(=O)NC(C)CCc2ccccc2)cccc1[N+](=O)[O-] (stereo not drawn),-18.2%
7,O=C(O)c1ccc(CSCc2ccccc2F)o1,-1.86%
8,CCOC(=O)C(NC(=O)c1ccccc1)(N1CCCC1=O)C(F)(F)F (stereo not drawn),8.16%
9,CCCCC(=O)NC(=S)Nc1ccc(Cl)c(C(=O)O)c1,33.8%
10,Cn1cnnc1Sc1cc(N2CCN(S(=O)(=O)c3ccc(Cl)c(Cl)c3)CC2)ccc1[N+](=O)[O-],-10.6%
11,Cc1cc(=O)oc2ccc(OCc3ccccc3)cc12,5.11%
12,Cc1[nH]ccc(=O)c1OCc1c(F)cccc1Cl,12.1%
13,CC(NC(=O)c1ccc(F)cc1F)C1CC2CCC1C2 (stereo not drawn),1.45%
14,COC(=O)c1cc(=O)nc2sc3cc(OC)ccc3n12,5.26%
15,O=C(N/N=C/c1cccs1)c1c[nH]c2ccccc12,-0.817%
16,CN(c1ccccc1)S(=O)(=O)c1cc(C(=O)Nc2nc3ccccc3[nH]2)ccc1Cl,1.28%
17,COc1ccccc1NCc1cc(=O)oc2c(C)c(O)ccc12,13.3%
18,CC(CNC(=O)CN1C(=O)NC2(CCOc3ccccc32)C1=O)c1ccccc1 (stereo not drawn),-8.13%
19,COc1ccc(Cn2ccnc2CO)cc1[N+](=O)[O-].Cl,-3.16%
20,Cc1cccc(N(CC(=O)NCCc2ccccc2)C(=O)c2csnn2)c1,-5.88%
21,CCc1c(C2(O)CCCCC2)[nH]c2cnccc12,-5.93%
22,Cc1cc(C)c2c3c(sc2n1)C(=O)N(C)CC(=O)N3,-2.3%

row,SMILES,"hERG current change (%, negative = inhibition) at 10uM"
1,Cc1cccc(Nc2nc(-c3ccccc3)c(C(=O)Nc3cccnc3)s2)c1,2%
2,COC(=O)[C@H](Cc1ccccc1)NC(=O)[C@@H](N)CC(=O)OCc1ccccc1.[Cl-] (H-Asp(OBn)-Phe-OMe),18.6%
3,CC(C)OCc1ccc(C(=O)N2CCN(S(=O)(=O)c3ccc(Br)s3)CC2)cc1,-19.6%
4,COc1cc(NC(=O)c2cc([N+](=O)[O-])ccc2NC(=O)CNC2CCCCC2C)cc(OC)c1 (stereo not drawn),20.3%
5,CSc1ccc(C(=O)C2CCCN(C(=O)c3nn(C)c(=O)c4ccccc34)C2)cc1 (stereo not drawn),-64.9%
6,Cc1ccc2[nH]c3c(c2c1)CN(C(C)C)CC3,1.36%
7,O=C(OCC(=O)c1c[nH]c2ccccc12)c1ccc(Br)o1,-5.45%
8,CC/S(=N\S(=O)(=O)c1ccc(C)cc1)c1ccccc1 (stereo not drawn),7.45%
9,CCNC(=O)N1CCNC(=O)C1CC(=O)OC (stereo not drawn),24.9%
10,COc1cc(/C=N/NC(=O)c2csc3c2CCCC3)cc(OC)c1O,-8.83%
11,NC(=O)c1ccc(NC(=O)C2CCCO2)cc1 (stereo not drawn),2.91%
12,CC(Oc1ccc(Cl)cc1Cl)c1ccn[nH]1 (stereo not drawn),-7.99%
13,CCOC(=O)CNC(=O)CSc1nnc(-c2c[nH]c3ccccc23)n1CC,-11.6%
14,O=C(COC(=O)/C=C/c1ccc(OC(F)F)cc1)NCCN1C(=O)CSC1=O,-60.8%
15,CNC(=O)/C=C/c1cc(C(=O)c2ccc(Cl)cc2Cl)cn1C,4.02%
16,O=C(NCc1cccnc1)c1ccccc1Br,-3.75%
17,CCn1c(=O)n(CC(=O)Nc2cc(OC)ccc2OC)c(=O)c2ccccc21,4.29%
18,CCS(=O)(=O)N1CCN(C(=O)c2cccs2)CC1,9.72%
19,COC(=O)C1=C(c2ccc(OC)c(OC)c2)C[C@@H]2CC[C@H]1N2C(=O)NCc1ccc(F)cc1,-0.0689%
20,O=C(NCCCl)c1ccc(OCc2ccccc2)cc1Cl,2.99%
21,O=C(Nc1ccccc1)c1ccc(-c2ccc(Br)cc2)o1,6.06%
22,COc1ccc(C(=O)N/C(=C\c2cccc3ccccc23)C(=O)N2CCN(C)CC2)cc1,-65.6%

row,SMILES,"hERG current change (%, negative = inhibition) at 10uM"
1,COc1ccccc1/C=C/C(=O)c1cc(Br)ccc1OC(=O)c1ccco1,15.4%
2,CCOC(=O)C(NCCCCl)c1ccccc1 (stereo not drawn),2.53%
3,CN(C)C(=O)c1cc([N+](=O)[O-])cc([N+](=O)[O-])c1N(C)C,9.2%
4,CC(c1ccco1)N(C(=O)c1ccc(Cl)c([N+](=O)[O-])c1)c1ccccn1 (stereo not drawn),2.75%
5,CCOc1cc(N2CCOCC2)c(OCC)cc1NC(=O)CCS(=O)(=O)c1ccc(Cl)cc1,-35.5%
6,CC(C)CNC(=O)CC(=O)NN=C1CCCC1,19.5%
7,COC(=O)CSc1nnc(CCc2ccccc2)n1C,11.6%
8,N#C/C(=N\Nc1ccc(S(=O)(=O)N2CCOCC2)cc1)C(N)=S,-2.88%
9,COc1cc(OC)c(OC)cc1CN1CCN(C(=O)Cc2ccccc2)CC1.O=C(O)C(=O)O,5.5%
10,COc1ccc(-c2nc3c(s2)CCc2onc(-c4ccc(OC)cc4)c2-3)cc1,-6.94%
11,COc1ccc(C2C(C(C)=O)=C(O)C(=O)N2C)c(OC)c1 (stereo not drawn),2.38%
12,CCOC(=O)C1CCCN(C(=O)c2cn(CC)c3ccc(S(=O)(=O)N(C)C)cc3c2=O)C1 (stereo not drawn),11.9%
13,NC(=O)NC(=O)COC(=O)c1ccc(OC(F)(F)F)cc1,-1.84%
14,Cl.O=C(c1cccc(S(=O)(=O)N2CCCCC2)c1)N1CCN(Cc2ccccc2)CC1,-56.6%
15,CCn1c(COc2ccccc2)nc2ccccc21,3.03%
16,N#CC(C#N)=C1C=CC=CN1/C(=C\c1ccco1)C(=O)c1ccccc1,-57.8%
17,O=C1/C(=C/c2ccccc2F)SC(=S)N1CCC(=O)N1CCCCC1CCO (stereo not drawn),-0.41%
18,NC(=O)C1CCN(CC(=O)N2N=CCC2c2ccccc2)CC1 (stereo not drawn),2.46%
19,CN1CCN(C(=O)c2cn(-c3ccccc3)nc2-c2cccnc2)CC1,-18.4%
20,O=C(CSc1ncccn1)NCC1CCCO1 (stereo not drawn),-1.44%
21,COc1ccccc1N(C)S(=O)(=O)c1ccc(C(=O)OC(C)C(=O)NCc2ccc3c(c2)OCO3)cc1 (stereo not drawn),-41.6%

# Source: PMC4336329 (PLoS ONE, 2015)
